# Assay results: the supplement of paper PMC7238544
# Counter-ions that a name gives are not always drawn. ± gives the standard deviation of the averaged measurements. This is one part of the list.
# How the values were obtained:
# Conditions in all cases: priming compound concentration 100 µM
# hAMSC donor 1 [1] = experiment: Hoechst total cell count ratio vs vehicle control; higher = more cells (less toxicity)
# hAMSC donor 2 [2] = experiment: as above
# hAMSC donor 1 [3] = experiment: transgenic luciferase activity (RLU/mg protein) fold change vs vehicle control (ratio); higher = more transgene expression
# hAMSC donor 2 [4] = experiment: as above
# hAMSC donor 1 [5] = experiment: transfection efficiency (EGFP+ cells / Hoechst count) fold change vs vehicle control (ratio); hAMSC are human adipose-derived mesenchymal stem cells given an EGFP-luciferase plasmid by lipofection; higher = enhanced transfection
# hAMSC donor 2 [6] = experiment: as above
# 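For Hoechst total cell count ratio vs vehicle control in this document: compound added 30 min before Lipofectamine 3000 lipoplex delivery, triplicate-well means expressed against DMSO vehicle control wells of the same 96-well plate.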
# 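For transfection efficiency (EGFP+ cells / Hoechst count) fold change vs vehicle control in this document: compounds added 30 min before Lipofectamine 3000 lipoplex transfection, triplicate means relative to DMSO vehicle wells on the same plate, luciferase RLU normalized to BCA total protein.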
# 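For transgenic luciferase activity (RLU/mg protein) fold change vs vehicle control in this document: compounds in DMSO added 30 min before Lipofectamine 3000 transfection of pEGFP-Luc in 96-well plates, values are means of triplicate wells over DMSO vehicle wells on the same plate.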
Structure (SMILES),Hoechst total cell count ratio (hAMSC donor 1 [1]),Hoechst total cell count ratio (hAMSC donor 2 [2]),transgenic luciferase activity (hAMSC donor 1 [3]),transgenic luciferase activity (hAMSC donor 2 [4]),transfection efficiency (hAMSC donor 1 [5]),transfection efficiency (hAMSC donor 2 [6])
CC(CCc1ccccc1)NCC(O)c1ccc(O)c(C(N)=O)c1 (centres undefined) [Labetalol hydrochloride],1.23 ± 0.17,1.64 ± 0.21,1.28 ± 0.099,0.608 ± 0.076,1.04 ± 0.46,0.791 ± 0.11
Nc1nc2c(ncn2COCCO)c(=O)[nH]1 [Acyclovir],1.16 ± 0.2,1.19 ± 0.19,0.375 ± 0.058,0.897 ± 0.22,0.786 ± 0.2,0.996 ± 0.2
NS(=O)(=O)Cc1noc2ccccc12 [Zonisamide],1.11 ± 0.035,1.11 ± 0.3,1.18 ± 0.06,0.904 ± 0.42,1.84 ± 0.32,1.17 ± 0.072
Cc1ccnc2c1NC(=O)c1cccnc1N2C1CC1 [Nevirapine],1.73 ± 0.14,1.3 ± 0.09,3.04 ± 1.9,2.55 ± 0.61,1.57 ± 0.31,1.18 ± 0.074
COc1cc(C(=O)NC2CCCNC2)cc(OC)c1OC (centres undefined) [Troxipide],1.54 ± 0.37,1.41 ± 0.21,0.167 ± 0.079,0.149 ± 0.016,0.983 ± 0.11,1.04 ± 0.064
C=CC1=C(C(=O)O)N2C(=O)[C@@H](NC(=O)/C(=N\OCC(=O)O)c3csc(N)n3)[C@H]2SC1 [Cefixime trihydrate],1.26 ± 0.2,0.677 ± 0.18,0.146 ± 0.14,0.3 ± 0.029,0.229 ± 0.024,0.711 ± 0.2
Oc1ncnc2[nH]ncc12 [Allopurinol],1.29 ± 0.28,1.37 ± 0.31,2.55 ± 2.3,0.643 ± 0.34,1.18 ± 0.33,1.61 ± 0.22
CC1CCN(CCCC(=O)c2ccc(F)cc2)CC1 [Methylperone hydrochloride],1.22 ± 0.12,1.13 ± 0.15,0.874 ± 0.21,0.814 ± 0.21,1.15 ± 0.19,0.846 ± 0.23
CC1(C)O[C@@H]2C[C@H]3[C@@H]4CCC5=CC(=O)C=C[C@]5(C)[C@@]4(F)[C@@H](O)C[C@]3(C)[C@]2(C(=O)CO)O1 [Triamcinolone acetonide],1.42 ± 0.17,1.28 ± 0.17,20.7 ± 2.3,4.28 ± 0.18,1.83 ± 0.45,2.23 ± 0.51
O=C1c2cccc3c2[C@H](CCC3)CN1[C@@H]1CN2CCC1CC2 [Palonosetron hydrochloride],1.43 ± 0.1,1.84 ± 0.2,0.593 ± 0.35,0.937 ± 0.26,0.96 ± 0.12,0.883 ± 0.1
Cn1c(NCCN(CCO)CCCc2ccc([N+](=O)[O-])cc2)cc(=O)n(C)c1=O [Nifekalant hydrochloride],1.27 ± 0.32,1.25 ± 0.17,0.599 ± 0.16,0.58 ± 0.13,1.44 ± 0.23,0.809 ± 0.17
CC[C@]1(O)C[C@@H]2CN(CCc3c([nH]c4ccccc34)[C@@](C(=O)OC)(c3cc4c(cc3OC)N(C)[C@H]3[C@@](O)(C(N)=O)[C@H](O)[C@]5(CC)C=CCN6CC[C@]43[C@@H]65)C2)C1 [Vindesine sulfate],0.597 ± 0.049,0.439 ± 0.042,0.533 ± 0.22,1.61 ± 0.27,0.847 ± 0.1,1.42 ± 0.18
Cc1cc(NS(=O)(=O)c2ccc(N)cc2)no1 [Sulfamethoxazole],1.26 ± 0.078,1.56 ± 0.24,0.656 ± 0.55,0.389 ± 0.15,1.05 ± 0.054,1.05 ± 0.16
O=C1CN(/N=C/c2ccc(-c3ccc([N+](=O)[O-])cc3)o2)C(=O)N1 [Dantrolene sodium],1.3 ± 0.18,1.98 ± 0.28,0.605 ± 0.1,0.852 ± 0.26,0.813 ± 0.36,0.718 ± 0.078
Cc1c(O)c(=O)ccn1C [Deferiprone],1.22 ± 0.19,1.69 ± 0.2,0.88 ± 0.43,0.697 ± 0.085,0.924 ± 0.16,0.678 ± 0.0084
CN1CCN2c3ncccc3Cc3ccccc3C2C1 (centres undefined) [Mirtazapine],1.49 ± 0.34,1.08 ± 0.051,0.271 ± 0.13,0.597 ± 0.27,1.1 ± 0.042,1.02 ± 0.14
CCCc1nc2c(C)cc(-c3nc4ccccc4n3C)cc2n1Cc1ccc(-c2ccccc2C(=O)O)cc1 [Telmisartan],1.27 ± 0.17,1.15 ± 0.15,0.774 ± 0.029,0.923 ± 0.051,1.07 ± 0.17,0.858 ± 0.035
COc1nc(C)nc(Cl)c1NC1=NCCN1 [Moxonidine hydrochloride],2.25 ± 0.19,1.06 ± 0.018,1.4 ± 0.34,1.76 ± 0.57,0.824 ± 0.091,0.937 ± 0.093
CCc1cc(C(N)=S)ccn1 [Ethionamide],0.999 ± 0.099,1.18 ± 0.26,0.968 ± 0.5,1.04 ± 0.37,1.43 ± 0.14,0.954 ± 0.036
COc1cc(-c2ccc(=O)[nH]n2)ccc1OC(F)F [Zardaverine],0.996 ± 0.038,1.19 ± 0.34,1.06 ± 0.039,0.443 ± 0.21,0.905 ± 0.27,1.59 ± 0.22
C[C@H]1O[C@@H](O[C@H]2[C@@H](O)C[C@H](O[C@H]3[C@@H](O)C[C@H](O[C@H]4CC[C@@]5(C)[C@H](CC[C@@H]6[C@@H]5C[C@@H](O)[C@]5(C)[C@@H](C7=CC(=O)OC7)CC[C@]65O)C4)O[C@@H]3C)O[C@@H]2C)C[C@H](O)[C@@H]1O [Digoxin],0.268 ± 0.024,0.29 ± 0.015,0.322 ± 0.29,0.00326 ± 0.00031,0.321 ± 0.23,0.0998 ± 0.02
CCOc1cc(CC(=O)N[C@@H](CC(C)C)c2ccccc2N2CCCCC2)ccc1C(=O)O [Repaglinide],1.33 ± 0.18,1.89 ± 0.035,1.58 ± 0.18,0.526 ± 0.095,0.908 ± 0.22,0.421 ± 0.069
Nc1c2c(nc3c1CCC3)CCCC2 [Ipidacrine],1.13 ± 0.13,1.28 ± 0.082,0.219 ± 0.086,0.526 ± 0.13,0.76 ± 0.23,0.849 ± 0.016
CN(C)CCOC(C)(c1ccccc1)c1ccccn1 (centres undefined) [Doxylamine succinate],1.26 ± 0.12,0.9 ± 0.29,0.964 ± 0.17,1.09 ± 0.32,0.852 ± 0.15,1.18 ± 0.053
